{
  "source": "patent US20070071744A1",
  "about": "(published 2007)",
  "binders": {"B1": {"name": "Fc-GPVI-nt (immunoadhesin: extracellular domain of human GPVI fused via Gly-Gly-Arg to human IgG Fc, dimer) (Fc fusion)", "chain": "QSGPLPKPSLQALPSSLVPLEKPVTLRCQGPPGVDLYRLEKLSSSRYQDQAVLFIPAMKRSLAGRYRCSYQNGSLWSLPSDQLELVATGVFAKPSLSAQPGPAVSSGGDVTLQCQTRYGFDQFALYKEGDPAPYKNPERWYRASFPIITVTAAHSGTYRCYSFSSRDPYLWSAPSDPLELVVTGTSVTPSRLPTEPPSSVAEFSEATAELTVSFTNKVFTTETSRSITTSPKESDSPAGPARQYYTKGNGGR[gap - human IgG1 Fc and a few adjoining residues]", "notes": "no cleavage site is stated for this entry; Secreted as a disulfide-linked dimer of about 160 kDa from HeLa (adenovirus) or CHO cells; also called GPVI-Fc; GPVI-Fc-dimer"}},
  "key": {"[1]": {"target": "T1, collagen (type I bovine; BD Bioscience), immobilized (bovine, UniProt P02453 162-1217; P02465 80-1117)", "T1 construct": "Fibrillar type I collagen coated on ELISA plates or used as platelet agonist; also called immobilized collagen; collagen type 1", "sequence (P02453 162-1217, chain 1 of 2)": "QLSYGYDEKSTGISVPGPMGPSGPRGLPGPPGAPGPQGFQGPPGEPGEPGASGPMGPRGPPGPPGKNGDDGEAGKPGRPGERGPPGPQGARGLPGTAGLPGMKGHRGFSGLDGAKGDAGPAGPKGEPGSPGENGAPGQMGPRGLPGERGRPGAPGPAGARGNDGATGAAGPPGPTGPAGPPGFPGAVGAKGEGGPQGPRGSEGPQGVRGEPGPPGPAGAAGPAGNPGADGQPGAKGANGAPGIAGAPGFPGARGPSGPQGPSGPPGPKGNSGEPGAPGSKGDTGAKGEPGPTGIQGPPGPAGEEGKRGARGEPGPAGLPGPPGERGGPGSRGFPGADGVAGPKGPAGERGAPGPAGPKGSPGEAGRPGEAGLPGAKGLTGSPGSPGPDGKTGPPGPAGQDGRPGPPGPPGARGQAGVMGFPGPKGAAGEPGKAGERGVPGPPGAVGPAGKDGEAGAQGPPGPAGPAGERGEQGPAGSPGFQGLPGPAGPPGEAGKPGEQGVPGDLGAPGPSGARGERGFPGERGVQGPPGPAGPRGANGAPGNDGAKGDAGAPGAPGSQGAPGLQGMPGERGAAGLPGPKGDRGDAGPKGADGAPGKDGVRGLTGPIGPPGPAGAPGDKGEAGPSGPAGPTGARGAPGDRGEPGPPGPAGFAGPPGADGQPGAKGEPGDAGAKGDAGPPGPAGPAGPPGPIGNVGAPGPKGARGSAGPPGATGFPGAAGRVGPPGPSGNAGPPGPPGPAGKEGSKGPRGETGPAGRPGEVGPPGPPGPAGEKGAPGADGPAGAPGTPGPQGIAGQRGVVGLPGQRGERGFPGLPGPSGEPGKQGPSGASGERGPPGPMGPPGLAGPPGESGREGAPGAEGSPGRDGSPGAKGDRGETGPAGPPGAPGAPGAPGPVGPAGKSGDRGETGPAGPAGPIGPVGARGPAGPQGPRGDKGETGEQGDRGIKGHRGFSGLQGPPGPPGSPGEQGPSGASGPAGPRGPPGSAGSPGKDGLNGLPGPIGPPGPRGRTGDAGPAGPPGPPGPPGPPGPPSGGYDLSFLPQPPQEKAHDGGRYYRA", "sequence (P02465 80-1117, chain 2 of 2, further chain)": "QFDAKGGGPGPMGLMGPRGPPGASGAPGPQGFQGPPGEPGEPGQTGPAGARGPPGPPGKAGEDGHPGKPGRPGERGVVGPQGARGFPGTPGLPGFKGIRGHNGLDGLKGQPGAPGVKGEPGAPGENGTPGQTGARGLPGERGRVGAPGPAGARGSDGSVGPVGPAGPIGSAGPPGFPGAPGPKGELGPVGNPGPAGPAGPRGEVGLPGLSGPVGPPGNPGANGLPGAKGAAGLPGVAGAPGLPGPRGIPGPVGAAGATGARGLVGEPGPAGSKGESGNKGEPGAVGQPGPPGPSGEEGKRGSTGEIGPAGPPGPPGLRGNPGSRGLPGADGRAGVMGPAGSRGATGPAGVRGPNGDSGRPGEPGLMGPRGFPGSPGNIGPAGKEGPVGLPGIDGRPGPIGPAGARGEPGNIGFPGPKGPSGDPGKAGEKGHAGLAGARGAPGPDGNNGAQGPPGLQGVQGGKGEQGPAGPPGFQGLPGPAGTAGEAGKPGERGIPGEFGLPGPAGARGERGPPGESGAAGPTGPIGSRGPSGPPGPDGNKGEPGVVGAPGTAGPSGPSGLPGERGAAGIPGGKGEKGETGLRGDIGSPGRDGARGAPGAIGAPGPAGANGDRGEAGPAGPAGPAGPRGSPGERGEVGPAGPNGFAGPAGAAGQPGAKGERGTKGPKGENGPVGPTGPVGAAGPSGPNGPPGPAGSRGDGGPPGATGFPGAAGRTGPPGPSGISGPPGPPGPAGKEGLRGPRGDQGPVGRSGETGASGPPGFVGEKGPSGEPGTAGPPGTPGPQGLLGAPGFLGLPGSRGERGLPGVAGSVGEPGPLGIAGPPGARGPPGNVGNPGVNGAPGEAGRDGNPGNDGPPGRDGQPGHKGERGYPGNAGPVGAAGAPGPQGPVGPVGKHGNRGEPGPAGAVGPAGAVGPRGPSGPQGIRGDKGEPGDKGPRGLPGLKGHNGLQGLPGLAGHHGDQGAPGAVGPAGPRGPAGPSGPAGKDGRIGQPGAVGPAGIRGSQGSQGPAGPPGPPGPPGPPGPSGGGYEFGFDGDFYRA", "assay": "ELISA, immobilized collagen", "procedure": "Assessment of dimeric Fc-GPVI-nt binding to immobilized collagen. The binding of dimeric Fc-GPVI-nt to immobilized collagen was determined. ELISA plates (Immulon2 HB, Dynx Technologies, Chantilly, Va.) were coated over night at 4° C. with 1 μg collagen (type I bovine; BD Bioscience, Bedford, Mass.) in 100 μl coating buffer (1.59 g/l Na₂CO₃, 2.93 g/l NaHCO₃, 0.2 g/l NaN₃, pH 9.6). The plates were washed with 250 μl/well PBS/0.05% Tween 20 (PBST) twice and blocked with 250 μl/well Roti-Block (Roth, Karlsruhe, Germany) over night. The plates were washed with 250 μl/well PBST twice, then Fc-GPVI-nt in PBST was added and the plate was incubated for 1 hr at room temperature. […] After 5 fold washing with 250 μl PBST 100 μl detection reagent (BM Blue POD Substrate; Roche, Mannheim, Germany) was added and incubated up to 10 min. The reaction was stopped by the addition of 100 μl 1 M H₂SO₄ and the plate was measured at 450 nm against reference wavelength 690 nm."}, "BSA": {"target": "BSA (bovine, UniProt P02769)", "assay": "ELISA, immobilized substrate"}},
  "data": [
    {"binder": "B1", "values": [
      {"measurement": "EC50", "setting": "[1]", "result": 6, "unit": "µg/mL"},
      {"measurement": "binding result", "setting": "BSA", "result": "no binding"}
    ]}
  ]
}
